Measurements as given in the supplement of paper PMC10126150.
Sequences with one replicate were seen in a single cluster, so their values are uncertain.
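Further: ATP exposure 15 min at 22 °C before imaging.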

Each sequence was assayed on ATP (assay: switch fluorescence ratio, 500 uM ATP over buffer (Cy3 cluster intensity, sum of 5 cycles each) (fold (ratio)); higher = stronger signal-on switching upon ATP binding; sequences stand for … in TCGTCGGCAGCGTCAGATGTGTATAAGAGACAGTTTTTTTTTTTTTTTTTTTTTTTTT…TC). Settings: aptamer strand: ATP DNA aptamer (quencher-CACCTGGGGGAGTATTGCGGAGGAAGG + anchor), 100 nM annealed; ATP concentration: 500 uM; one replicate.
Procedure, shortened: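 Cy3-labelled switching-strand clusters on a modified Illumina MiSeq flow-cell were annealed to 100 nM quencher-labelled ATP aptamer and imaged first in selection buffer, then after 15 min with 500 uM ATP at 22 °C. NaOH stripping and re-annealing separated each of five buffer/ATP cycles, and clusters outside 100-1000 RFU were excluded. The fluorescence ratio sums target-cycle Cy3 intensity over buffer-cycle Cy3 intensity per cluster and averages it per switch-domain sequence.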
In the case of CTTTAAAGT, the switch fluorescence ratio is reported as 0.982. AATTGGCTCG was tested, and the switch fluorescence ratio was 0.956. In the case of CACACCGGGA, the switch fluorescence ratio is reported as 1.01. AAGTGCAGGT showed a switch fluorescence ratio of 0.969. In the case of ATTCAGTTCG, the switch fluorescence ratio is reported as 1.02. Sequence CTTCCCGTTT has a switch fluorescence ratio of 1.26. For CATCGAATGT, the switch fluorescence ratio was 1. TTGGAGT was tested, and the switch fluorescence ratio was 0.985. For ATTGGTCT, the switch fluorescence ratio was 0.983. In the case of TAGTGTGCA, the switch fluorescence ratio is reported as 0.981. For CGCAGCTTCG, the switch fluorescence ratio was 1.16. Sequence TGATAAGTC has a switch fluorescence ratio of 1.03. Work on CACGTAATAT yielded a switch fluorescence ratio of 1.79. CATACAACTT gave a switch fluorescence ratio of 1.05. In the case of AATTGGCAAC, the switch fluorescence ratio is reported as 0.989. With TGCATAAGT the switch fluorescence ratio was 1.11. Sequence CGGAGGTCTC has a switch fluorescence ratio of 1.02. Sequence GGTAGCGGTC has a switch fluorescence ratio of 1.06. TAAGCTATGG was tested, and the switch fluorescence ratio was 1.01. With CTCCGGTTAA the switch fluorescence ratio was 4.4. TTTGGCTCGT showed a switch fluorescence ratio of 0.974. With ATGCTCCGGG the switch fluorescence ratio was 1.1. In the case of TAATGTATGC, the switch fluorescence ratio is reported as 1.07. Work on TGACTTCCGT yielded a switch fluorescence ratio of 1.13. CGTCGGACGG was tested, and the switch fluorescence ratio was 1.02. For TAAACACCTA, the switch fluorescence ratio was 1.05. TCGTCGGTCC showed a switch fluorescence ratio of 1.02. Work on GCATCACATA yielded a switch fluorescence ratio of 1.05. Sequence ACCATTAGCT has a switch fluorescence ratio of 1.01. Sequence AAGAGCAGTG has a switch fluorescence ratio of 1.05. ACCCAATTGG showed a switch fluorescence ratio of 0.992. In the case of TTTGGGGATC, the switch fluorescence ratio is reported as 0.979. Work on AGCTTGACGC yielded a switch fluorescence ratio of 1.04. ATCCAAGACA showed a switch fluorescence ratio of 0.998. For CGGGATGGTG, the switch fluorescence ratio was 0.886. TCGTGCAGA showed a switch fluorescence ratio of 0.993. In the case of TAGCCCCAAG, the switch fluorescence ratio is reported as 2.37. In the case of CTTCTCTTGG, the switch fluorescence ratio is reported as 1. Sequence AAACAGGATT has a switch fluorescence ratio of 1. Work on ACCGACCGGC yielded a switch fluorescence ratio of 1.36. Sequence GTTACTTACT has a switch fluorescence ratio of 1.23. For GATCAGAATG, the switch fluorescence ratio was 0.986. For AGTGTTGTCC, the switch fluorescence ratio was 1.01. For GGGTTCGGAT, the switch fluorescence ratio was 1.02. AGAGTTGCGG showed a switch fluorescence ratio of 0.954. For ATAGAAATCG, the switch fluorescence ratio was 0.932. For GTAAGTCATG, the switch fluorescence ratio was 1.02. In the case of CGCACGGCGT, the switch fluorescence ratio is reported as 1. CAGGTACTGC was tested, and the switch fluorescence ratio was 1.03. For GTAAAGCTTC, the switch fluorescence ratio was 0.972. For AGGGAACCGA, the switch fluorescence ratio was 1.08. Work on TTGTGGAAGT yielded a switch fluorescence ratio of 0.952. CGCAACCGCA was tested, and the switch fluorescence ratio was 1.26. ATTGGTCTGG was tested, and the switch fluorescence ratio was 0.962. With AGCGGTATGG the switch fluorescence ratio was 1.04. CAGTCGCTTT was tested, and the switch fluorescence ratio was 1.04. Sequence CACTGGTCCG has a switch fluorescence ratio of 1.1. For TTATGCTCGC, the switch fluorescence ratio was 1.04. Sequence GAGATCGGGT has a switch fluorescence ratio of 0.993. For AGGACGAGCC, the switch fluorescence ratio was 1.05. TACGGGTGAT was tested, and the switch fluorescence ratio was 1.03. Sequence TCATGCTAGT has a switch fluorescence ratio of 1.05. In the case of TTGCCAGCAA, the switch fluorescence ratio is reported as 1.64. TATTAGAGG showed a switch fluorescence ratio of 1.02. With AGAGTCTAAT the switch fluorescence ratio was 0.968. For CAAAATCAGC, the switch fluorescence ratio was 0.903. ATGTAGGTGT showed a switch fluorescence ratio of 1.1. In the case of CGTTTGCGGG, the switch fluorescence ratio is reported as 1.04. In the case of TATCCAGGCG, the switch fluorescence ratio is reported as 1.13. With TATTAAGTCC the switch fluorescence ratio was 1.02. In the case of AGGGTGATCT, the switch fluorescence ratio is reported as 0.971. Sequence TTTTATCGGA has a switch fluorescence ratio of 0.996. Work on CGGGCTAGCT yielded a switch fluorescence ratio of 1.01. With CTGTCTGGCC the switch fluorescence ratio was 1.04. For GTTGAAACCA, the switch fluorescence ratio was 0.993. CAATCCGCCA gave a switch fluorescence ratio of 3.79. ACGGGAGCTG gave a switch fluorescence ratio of 0.97. CGAGGCTAGC gave a switch fluorescence ratio of 1.26. With CATCGTTTTA the switch fluorescence ratio was 1.05. In the case of AATCCCAAGG, the switch fluorescence ratio is reported as 1.38. CCGGTGCTTG was tested, and the switch fluorescence ratio was 1.09. With TGCGCCACAT the switch fluorescence ratio was 1.03. In the case of CGTGTGTTCA, the switch fluorescence ratio is reported as 0.99. In the case of AGGGGCTCCT, the switch fluorescence ratio is reported as 0.978. In the case of GAAGGGTAG, the switch fluorescence ratio is reported as 0.995. TAGAAGGATT showed a switch fluorescence ratio of 0.993. CATAGTGCAT was tested, and the switch fluorescence ratio was 0.999. ATGGGGACAC was tested, and the switch fluorescence ratio was 1.03. TGTGCGTAAT showed a switch fluorescence ratio of 1.06. For TGTCATAGCG, the switch fluorescence ratio was 0.997. Sequence ACCTTCAACG has a switch fluorescence ratio of 2.41. With AGCTTTCATA the switch fluorescence ratio was 0.969. In the case of CGACGATGCG, the switch fluorescence ratio is reported as 1.02. TGAAACAAAG was tested, and the switch fluorescence ratio was 1.03. TTGGAATACA gave a switch fluorescence ratio of 0.969. TGTGCGAGTC showed a switch fluorescence ratio of 0.995. With CTTCCCACAG the switch fluorescence ratio was 1.75. TACGCCTTCA showed a switch fluorescence ratio of 1.4. Sequence TCGACTGCGA has a switch fluorescence ratio of 2.43. With GACCTACGCT the switch fluorescence ratio was 1.73. Work on AATAGGCAAG yielded a switch fluorescence ratio of 0.974. For CGACCGCCTC, the switch fluorescence ratio was 4.17. TAAGTTAGGA was tested, and the switch fluorescence ratio was 0.976. Work on AGGCCAATGT yielded a switch fluorescence ratio of 1.01. GTCAGCATAT showed a switch fluorescence ratio of 1.32. For TTACGAGGGC, the switch fluorescence ratio was 1.04. With ATAAAAAGCC the switch fluorescence ratio was 1. Work on GATCTTCTCC yielded a switch fluorescence ratio of 1.06. With CTTCGGTGCG the switch fluorescence ratio was 1.1. Sequence ACGTCATATG has a switch fluorescence ratio of 1.12. CATGACTTCC gave a switch fluorescence ratio of 1.96. With AAATTTCGTG the switch fluorescence ratio was 0.942. GATATGTAGC gave a switch fluorescence ratio of 1. GCGGTGGGAG gave a switch fluorescence ratio of 0.987. With AGATATGCGG the switch fluorescence ratio was 1.11. ACAAATGCGT gave a switch fluorescence ratio of 0.997. Sequence GTCCCTGGGC has a switch fluorescence ratio of 0.986. ATCCTACGT gave a switch fluorescence ratio of 1.16. Work on CGCCATACTT yielded a switch fluorescence ratio of 4.53. In the case of CAAGCAAGCG, the switch fluorescence ratio is reported as 1.14. In the case of CCAAGAGAGC, the switch fluorescence ratio is reported as 1.02. In the case of TCAAGGAACC, the switch fluorescence ratio is reported as 1.04. Sequence AGCGGTATC has a switch fluorescence ratio of 1.08. AAAGGCCGAG gave a switch fluorescence ratio of 0.989. For TGAGGAGACG, the switch fluorescence ratio was 1.03. Sequence GTAATTAGTA has a switch fluorescence ratio of 1. With AGGGAACGTG the switch fluorescence ratio was 1.02. In the case of ACATAACTGT, the switch fluorescence ratio is reported as 1.05. With TTTGACTGAT the switch fluorescence ratio was 1.02. Work on ATAATTCGAC yielded a switch fluorescence ratio of 1.04. ATTCACTAT gave a switch fluorescence ratio of 1.03. With AAGACACGTA the switch fluorescence ratio was 1.14. CTGATTAGCA showed a switch fluorescence ratio of 1.03. Sequence ATGTGCTTGC has a switch fluorescence ratio of 1.07. With CAGAGTCAGT the switch fluorescence ratio was 0.963. In the case of TATCATGGAA, the switch fluorescence ratio is reported as 0.97. With GTGTGGCAGC the switch fluorescence ratio was 0.953. AACGTAACA was tested, and the switch fluorescence ratio was 1.26. Sequence TTTCATACTA has a switch fluorescence ratio of 0.98. CCAAAGGAGA was tested, and the switch fluorescence ratio was 0.952. With ATACTGAGTC the switch fluorescence ratio was 1.05. In the case of ATATTTCGGG, the switch fluorescence ratio is reported as 1.05. In the case of TATCAAGGGG, the switch fluorescence ratio is reported as 1.39. For CCGCTGAGTT, the switch fluorescence ratio was 2.56. AGGCTCTACA showed a switch fluorescence ratio of 0.99. With GGCTGCAAAT the switch fluorescence ratio was 1.07. ACGGGCTTTG showed a switch fluorescence ratio of 1.07. Sequence CATTTTGAAT has a switch fluorescence ratio of 1.03. GTTAGAATAG was tested, and the switch fluorescence ratio was 1.01. Sequence ACTGAGGTA has a switch fluorescence ratio of 1.06. Work on CGGAAGGC yielded a switch fluorescence ratio of 2.13. With TAAAACATT the switch fluorescence ratio was 1. Work on GTACGGAAGG yielded a switch fluorescence ratio of 1.11. For TAGTGTAGTG, the switch fluorescence ratio was 0.991. Sequence GGGGTCCGCT has a switch fluorescence ratio of 1.01. TCGATGACAG gave a switch fluorescence ratio of 0.967. GAATACAGG gave a switch fluorescence ratio of 1.04. ATTCCGTAAT gave a switch fluorescence ratio of 5.05. Work on CGTATGGCGG yielded a switch fluorescence ratio of 1.01. With CGGGAAGTCT the switch fluorescence ratio was 0.847. Sequence AAGCCCGTA has a switch fluorescence ratio of 0.942. In the case of CCTGGTTTA, the switch fluorescence ratio is reported as 1.02. TTTGTGCTGT gave a switch fluorescence ratio of 0.968. TACGATTAAT gave a switch fluorescence ratio of 1.07. With CCTTTATAAG the switch fluorescence ratio was 0.987. For ACCTCAAGTA, the switch fluorescence ratio was 1.04. Work on CACACCCTTT yielded a switch fluorescence ratio of 1.09. Work on TGATGTGACG yielded a switch fluorescence ratio of 1.05. Sequence GAAACCGACG has a switch fluorescence ratio of 2.29. CGTCGTGGAA showed a switch fluorescence ratio of 0.954. Sequence TATTTCGTTC has a switch fluorescence ratio of 0.983. For TCACTTATGA, the switch fluorescence ratio was 1.06. Work on GCGATGGTTG yielded a switch fluorescence ratio of 0.966. With CCATATCATG the switch fluorescence ratio was 1.01. For GATAATACTA, the switch fluorescence ratio was 0.982. CGGCTACTTG gave a switch fluorescence ratio of 1.11. For AATAATATGG, the switch fluorescence ratio was 1.08. AAACCATAAA showed a switch fluorescence ratio of 0.993. AGGGCATCTA was tested, and the switch fluorescence ratio was 1. For TACTCTATT, the switch fluorescence ratio was 1. In the case of AGGCACCCAT, the switch fluorescence ratio is reported as 0.998. Work on CATTCCGGTA yielded a switch fluorescence ratio of 1.28. In the case of TTAGATGGC, the switch fluorescence ratio is reported as 1.13. GTCTTGGATT gave a switch fluorescence ratio of 0.978. With ATGGTTCAGG the switch fluorescence ratio was 0.958. GCGCACCCTG showed a switch fluorescence ratio of 1.01. In the case of ATAACCATGA, the switch fluorescence ratio is reported as 0.982. In the case of CGTTCATGCT, the switch fluorescence ratio is reported as 1.01. Sequence TGCGGATTTG has a switch fluorescence ratio of 1.01. GTTGCTTGAC was tested, and the switch fluorescence ratio was 1.01. CGACAGATCA was tested, and the switch fluorescence ratio was 0.969. GCCCATGTGC gave a switch fluorescence ratio of 1.29. Sequence GGATGTCGT has a switch fluorescence ratio of 0.948. GGGATTGGCG showed a switch fluorescence ratio of 1.01. For CCCTTGAGAA, the switch fluorescence ratio was 1.01. In the case of TCATCTTCAA, the switch fluorescence ratio is reported as 1.09. In the case of ACGTGTAAAC, the switch fluorescence ratio is reported as 1.03. For GACTAAAGTT, the switch fluorescence ratio was 1.01. Work on GACGTCATCG yielded a switch fluorescence ratio of 0.912. CTACGCCAGC gave a switch fluorescence ratio of 2.9. CGACTGAAG gave a switch fluorescence ratio of 1.02.
